Molecules are shown by their SMILES. Hit rate of the full screen: of about 39,000 compounds, about 220 (0.56%) showed activity. The list shows a part of the results.
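Further: static incubation at 37 °C against the wild-type strain, values averaged over two biological replicates.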

For the experiment, the system named is Escherichia coli K-12 BW25113. The experiment in a line: relative growth (OD600 normalised to plate interquartile mean) (fraction); higher = less growth inhibition, active = 0.2 or less. The note with it: 50 µM; LB; incubation time: overnight (16-24 h).
Take `Cc1ccc(S(=O)(=O)Nc2ccc3c(c2)C(=O)N([C@H](C)CO)C[C@H](C)[C@H](CN(C)C(=O)Nc2ccccc2)OCCCC[C@H](C)O3)cc1`: the relative growth was inactive: 1.03.
On to `COc1ccc(NC(=O)Nc2ccc3c(c2)C(=O)N([C@@H](C)CO)C[C@H](C)[C@@H](CN(C)C(=O)Cc2ccccc2)OCCCC[C@@H](C)O3)cc1`, for which the relative growth is inactive: 1.02.
Consider `Cc1noc(C)c1S(=O)(=O)Nc1ccc2c(c1)C(=O)N([C@H](C)CO)C[C@H](C)[C@H](CN(C)S(=O)(=O)c1cn(C)cn1)OCCCC[C@H](C)O2`, for which the relative growth is inactive: 0.975.
Turning to `COc1ccc2cc1Oc1ccc(cc1)CC1c3c(cc4c(c3Oc3cc5c(cc3OC)CCN(C)C5C2)OCO4)CCN1C` (stereo not given), the relative growth is inactive: 0.844.
The same measure for `Cc1noc(C)c1NC(=O)Nc1ccc2c(c1)CC(=O)N([C@@H](C)CO)C[C@H](C)[C@@H](CN(C)CC1CC1)O2`: inactive: 1.
The figure for `COC(=O)[C@H]1[C@H](CO)[C@H]2Cn3c(cccc3=O)[C@H]2N1C(=O)C1CC1` is inactive: 0.997; for `C[C@@H]1CN([C@@H](C)CO)C(=O)c2cccc(NS(=O)(=O)c3cccs3)c2O[C@@H]1CN(C)Cc1ccc(Oc2ccccc2)cc1` it is inactive: 1; for `C[C@H](CO)N1C[C@H](C)[C@@H](CN(C)Cc2ccc(Oc3ccccc3)cc2)Oc2ncc(-c3ccncc3)cc2C1=O` it is inactive: 1.01.
Regarding `Cc1noc(C)c1NC(=O)Nc1ccc2c(c1)CC(=O)N([C@@H](C)CO)C[C@@H](C)[C@H](CN(C)S(C)(=O)=O)O2`, the relative growth is inactive: 1.01.
With `COc1ccc(S(=O)(=O)N(C)C[C@H]2Oc3ncc(Br)cc3C(=O)N([C@@H](C)CO)C[C@@H]2C)cc1`, the relative growth was inactive: 1.02.
`C[C@@H]1CN([C@@H](C)CO)C(=O)c2cc(NC(=O)C3CC3)ccc2O[C@@H]1CN(C)S(=O)(=O)c1ccc(F)cc1`: the relative growth is inactive: 0.972.
`C[C@H](CO)N1C[C@H](C)[C@H](CN(C)C(=O)C2CCC2)Oc2cc(C#Cc3ccncc3)ccc2S1(=O)=O`: the relative growth was inactive: 0.998.
Regarding `COc1ccc(S(=O)(=O)Nc2ccc3c(c2)C(=O)N([C@@H](C)CO)C[C@@H](C)[C@@H](CN(C)Cc2ccc4c(c2)OCO4)OCCCC[C@@H](C)O3)cc1`, the relative growth was inactive: 0.95.
The figure for `CC(C)NC(=O)N(C)C[C@@H]1Oc2ccc(NC(=O)Nc3ccc4c(c3)OCO4)cc2CC(=O)N([C@H](C)CO)C[C@H]1C` is inactive: 1.03.
On to `COCCOC(=O)N1C(=O)[C@@]2(c3cc(C#CCNC(N)=O)ccc31)[C@H](C(=O)N1CCc3cc(OC)c(OC)cc3C1)[C@H]1C(=O)O[C@H](c3ccccc3)[C@H](c3ccccc3)N1[C@@H]2c1ccc(OCCO)cc1`, for which the relative growth is inactive: 1.05.

Values taken from the supplement of paper PMC9446081.
